# Data taken from PMC7819943, “Rice protein-binding microarrays: a tool to detect cis-acting elements near promoter regions in rice”.
# Some of the results follow.
# Target: T1, OsWOX13 (Oryza sativa, UniProt Q5QMM3 1-267)
# T1 sequence: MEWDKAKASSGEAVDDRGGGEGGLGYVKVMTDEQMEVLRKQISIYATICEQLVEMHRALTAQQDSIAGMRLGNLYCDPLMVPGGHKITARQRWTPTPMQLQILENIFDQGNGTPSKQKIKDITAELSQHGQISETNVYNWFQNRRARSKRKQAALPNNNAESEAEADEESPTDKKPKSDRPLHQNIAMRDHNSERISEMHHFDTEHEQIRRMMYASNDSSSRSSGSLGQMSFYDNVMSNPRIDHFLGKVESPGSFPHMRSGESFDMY
# Assay: protein-binding microarray (RPBM); PBS, 2% BSA, 51.3 ng/ul salmon testes DNA, 50 uM zinc acetate, 200 nM TF, 25 C, 1 h; high values mean tight binding
# Settings: protein: recombinant; tags: N-terminal polyhistidine and DsRed monomer fusion (pET32a); label: CyDye5-dUTP incorporated in the synthesized complementary strand; 3' TTTTT single-stranded linker to array surface; dsDNA, one strand shown
# Procedure, shortened: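 The binding signal is fluorescence intensity per array feature (arbitrary units). Readings came from an Axon 4000B scanner after a washed, 2% BSA-blocked, double-stranded custom Agilent array had been incubated for 1 h at 25 °C with 200 nM protein and 50 µM zinc acetate. The protein was a Ni–NTA-purified transcription factor fused N-terminally to polyhistidine and DsRed, expressed in E. coli BL21-CodonPlus.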
row,Sequence,binding signal
1,TCTGGATTATTAAATTATATCACTTTCTGTTTCTGACACTCGGAGTCACCTAGTGCAG,6690 fluorescence intensity (a.u.)
2,ATGCTAAGATGTAATTGACATGGTGTTTTAATCGATACATCGGAGTCACCTAGTGCAG,17100 fluorescence intensity (a.u.)
3,TTGTGATTGAGTTCATGCTAAACATGGTCGACATTAGATGCGGAGTCACCTAGTGCAG,41900 fluorescence intensity (a.u.)
4,GTTAAATTTAGGGTTGAAGAAATTAAGATGAAATTCTTTTCGGAGTCACCTAGTGCAG,4990 fluorescence intensity (a.u.)
5,CTTAACAATGCAGTAATTTGTCCCAAATCATCACCCATCTCGGAGTCACCTAGTGCAG,10200 fluorescence intensity (a.u.)
6,TGGTGTTATCAATCAACAGACGAGTTGACGATAATGGTAACGGAGTCACCTAGTGCAG,26100 fluorescence intensity (a.u.)
7,CATGCTATTAATAAACAAACTGATTTAAACTTACATGGTTCGGAGTCACCTAGTGCAG,4960 fluorescence intensity (a.u.)
8,ATAAATTGAACAGAGCAAACAAAGCAGAAGAACTCGACTCCGGAGTCACCTAGTGCAG,6360 fluorescence intensity (a.u.)
9,TTAAATTGCGGATCCTACAAACCGGCCCAGAACAGTTGGGCGGAGTCACCTAGTGCAG,8370 fluorescence intensity (a.u.)
10,GTCTTTATTTGATTGATCATCTGGCATCAATCAATCGGCTCGGAGTCACCTAGTGCAG,65500 fluorescence intensity (a.u.)
11,TAGAGATTTTGTCAGAATTTAATTAAATTATGTGAAATTTCGGAGTCACCTAGTGCAG,12500 fluorescence intensity (a.u.)
12,AATGATTTTATTAAGATTCTGAACAGAGTTGAATAAATGACGGAGTCACCTAGTGCAG,5330 fluorescence intensity (a.u.)
13,ATACATGTCCTGGCATTAATTATCACTCACCTTAGATTATCGGAGTCACCTAGTGCAG,3170 fluorescence intensity (a.u.)
14,CCATCATCAATTCTTCAATCAATCATCCCTCTTCTCTTCTCGGAGTCACCTAGTGCAG,20000 fluorescence intensity (a.u.)
15,AAGTCAAATTAACTTATAATATGAAACAGACACGGTAGTACGGAGTCACCTAGTGCAG,11000 fluorescence intensity (a.u.)
16,CAAATCATGGCACAATTAGGCTCAAAAGATTTGTCTCGCACGGAGTCACCTAGTGCAG,5280 fluorescence intensity (a.u.)
17,TATCAGATTGCAACAACGGATCACATATGCACATCCCCTTCGGAGTCACCTAGTGCAG,3300 fluorescence intensity (a.u.)
18,ACTATAATTTGGGAAAACTAAAACCGCGCCACTCCGTCGTCGGAGTCACCTAGTGCAG,12700 fluorescence intensity (a.u.)
19,AAGCAAATTTGACTGCTGCTTTAGAGGTTGCCGAACTGGCCGGAGTCACCTAGTGCAG,16500 fluorescence intensity (a.u.)
20,CTGTGATGAGTTTGCTGTGTTGTCATCTTCTGTTAGTGGACGGAGTCACCTAGTGCAG,5580 fluorescence intensity (a.u.)
21,AATTTCGTCAATAGATTATGACACCCGTGCCATTTCAGCGCGGAGTCACCTAGTGCAG,4940 fluorescence intensity (a.u.)

row,Sequence,binding signal
1,CTTCCCAATAAAAGGCGATGTAATTGATACCTGCCCGTTGCGGAGTCACCTAGTGCAG,8060 fluorescence intensity (a.u.)
2,AACGTCGCCGTCAATTAAATTGTGCCACCGGTTACAAACACGGAGTCACCTAGTGCAG,4420 fluorescence intensity (a.u.)
3,ATTTAACACTAAATTTCTCACAGAACTACATATTTAATGTCGGAGTCACCTAGTGCAG,3590 fluorescence intensity (a.u.)
4,GTCGCGTAATTGCGCGCGCTTCGCGTGCGGCCGTGCAGTGCGGAGTCACCTAGTGCAG,6020 fluorescence intensity (a.u.)
5,AGTGGCGCCATCAACATCAATCTATTCTAGCTATCTCGGGCGGAGTCACCTAGTGCAG,3230 fluorescence intensity (a.u.)
6,ATACCGTGATTGGGATTACCTGTGACCTTGCCTATTTGACCGGAGTCACCTAGTGCAG,40900 fluorescence intensity (a.u.)
7,GAAGTTTAATTAGCACACGAGTAGTTTGCAAGTTGTAAGGCGGAGTCACCTAGTGCAG,9120 fluorescence intensity (a.u.)
8,CTTTAATTGCTTCTCTCTCTTCTCCCAATTGCAGTCCTCTCGGAGTCACCTAGTGCAG,37200 fluorescence intensity (a.u.)
9,GCTCTGATTAATTTCAAACTTCGATTATGGACTAGTCAACCGGAGTCACCTAGTGCAG,53400 fluorescence intensity (a.u.)
10,ATGTCTGATCAATTAATTACCTTGCTATTGCTAACCAGGGCGGAGTCACCTAGTGCAG,19700 fluorescence intensity (a.u.)
11,CTGACTGACTGGACCAGGTCACCCGCGAGGCCGCGACGTGCGGAGTCACCTAGTGCAG,16300 fluorescence intensity (a.u.)
12,GTGATGATTTTGTCATAGCTCATCAGTGTAGTATATGCCTCGGAGTCACCTAGTGCAG,19900 fluorescence intensity (a.u.)
13,TCAAATAATTATATTTTCTAAGTTTATAATATTTGTTTGACGGAGTCACCTAGTGCAG,10600 fluorescence intensity (a.u.)
14,TACAATTTGACATGTTAAAATCACAACTTGACACAGGCATCGGAGTCACCTAGTGCAG,6650 fluorescence intensity (a.u.)
15,GGTTAACTGGTAAGTTTATTAGTTTTCTGGAATATTACTTCGGAGTCACCTAGTGCAG,23300 fluorescence intensity (a.u.)
16,TTTGATTTGATCAAGTGGGAGGCAACCTTCTTGTTGTTTGCGGAGTCACCTAGTGCAG,50400 fluorescence intensity (a.u.)
17,CCCCTGATTTCCGATTTGTTTGGTCGATGGAGACTGGATGCGGAGTCACCTAGTGCAG,21300 fluorescence intensity (a.u.)
18,TTAAAAGTAATTGATTAACTACATATGAAAAGAAGATAGGCGGAGTCACCTAGTGCAG,35200 fluorescence intensity (a.u.)
19,AGTGATTGCATCCAGGAAAGTCACACTTGTGTAAGAAACTCGGAGTCACCTAGTGCAG,19800 fluorescence intensity (a.u.)
20,ACTAATTTCTTCATTCCAATATATGAATACTCTCTTCGTCCGGAGTCACCTAGTGCAG,23200 fluorescence intensity (a.u.)
21,TTGACACCTAATTATTACCTACAGAGGTTTGCTAACCCAACGGAGTCACCTAGTGCAG,10500 fluorescence intensity (a.u.)

row,Sequence,binding signal
1,AATTGCCAATTCAAATTTGCTCAAAATTTTACTACACCGTCGGAGTCACCTAGTGCAG,4220 fluorescence intensity (a.u.)
2,TGTAATGATGGCAATATATATCGATCTCCTCCTCTCTAATCGGAGTCACCTAGTGCAG,5070 fluorescence intensity (a.u.)
3,AAAATTGAGCAAAATTTAGGCCATAGAAAGGGAGAAGCTCCGGAGTCACCTAGTGCAG,6870 fluorescence intensity (a.u.)
4,ATCTAATCTTGAATTAAACTCACTATCAATTCCCACCATCCGGAGTCACCTAGTGCAG,4380 fluorescence intensity (a.u.)
5,ATTAATTAGGCTCAAAATATTAGTCTCACGGTTTCCAGACCGGAGTCACCTAGTGCAG,14700 fluorescence intensity (a.u.)
6,TTTTCAATTTATTTAAATTTAAGGAGGTTACCGTGGCATTCGGAGTCACCTAGTGCAG,25400 fluorescence intensity (a.u.)
7,TTATAACATTATTGATTGATATCAACACTTGTATGCATAACGGAGTCACCTAGTGCAG,49700 fluorescence intensity (a.u.)
8,AAAATTGGAAGTTTGAAGAAATTAGAATAATGTGACGGAACGGAGTCACCTAGTGCAG,3400 fluorescence intensity (a.u.)
9,CAAAATAGACTTTTCTCATCATTAGTACATTGACATACCACGGAGTCACCTAGTGCAG,10300 fluorescence intensity (a.u.)
10,TTAAATGTTAAGCCTAATTACGTCATGGTTTGACAACGTTCGGAGTCACCTAGTGCAG,8450 fluorescence intensity (a.u.)
11,GGGTGGTTAATTTGTTTTAACGAGATGGTCAGTGTGAACGCGGAGTCACCTAGTGCAG,21200 fluorescence intensity (a.u.)
12,ATGTCAGATAATTAATTATTCCATTTATAGGTGTGTGAGGCGGAGTCACCTAGTGCAG,24800 fluorescence intensity (a.u.)
13,GCCTAATCAAATCATTCTCCGGCACGTACTACTGTACGTCCGGAGTCACCTAGTGCAG,3580 fluorescence intensity (a.u.)
14,GTCGCTGTCATTTGGTTGTTTCATTTGTAATATTAGTTGTCGGAGTCACCTAGTGCAG,3360 fluorescence intensity (a.u.)
15,ACCATCATAATGATGTTGACATGAAATCATAAATACTTTCCGGAGTCACCTAGTGCAG,4980 fluorescence intensity (a.u.)
16,CATTGACATGACATGACCAATTACTCCGTCCAGGGACCAGCGGAGTCACCTAGTGCAG,32200 fluorescence intensity (a.u.)
17,ATAGATTTGTTATCCAAACACAAAAGTGACTTGGAGGGCTCGGAGTCACCTAGTGCAG,8580 fluorescence intensity (a.u.)
18,TTTATAATTAGTGTCCAAACATCCGATGTGATAGGGACTTCGGAGTCACCTAGTGCAG,18500 fluorescence intensity (a.u.)
19,TTTAGATTTCTTACTGTGTAAATTTACAACAAAGATTGTACGGAGTCACCTAGTGCAG,3320 fluorescence intensity (a.u.)
20,AGTACATTGATGACACTGAAGATTTTATCAACATTCAGTTCGGAGTCACCTAGTGCAG,4140 fluorescence intensity (a.u.)
21,CAAGTAATTAATCAACACATCAGCAGGCTAGCTCCTGTAACGGAGTCACCTAGTGCAG,13800 fluorescence intensity (a.u.)

row,Sequence,binding signal
1,ATAAGTTGGGCTGGTTTTCTGATTGAGGGATGTGATTCGACGGAGTCACCTAGTGCAG,3490 fluorescence intensity (a.u.)
2,GAATAATTTTGAAAATTTTGTACGATTATTATAGGTACAACGGAGTCACCTAGTGCAG,25000 fluorescence intensity (a.u.)
3,TAGATTAAATTAATATATTACCCACTAATTTTACCTATAACGGAGTCACCTAGTGCAG,19100 fluorescence intensity (a.u.)
4,TAAATCACTAAATTATTAATGTCTTTAACAAGCATAGTGCCGGAGTCACCTAGTGCAG,11900 fluorescence intensity (a.u.)
5,TCCCATGATTTCTATTTCTCTAATCCTAATCTCATGCTTCCGGAGTCACCTAGTGCAG,15500 fluorescence intensity (a.u.)
6,CCTAGATCTAATTGGGTAATAGTTTTACATTTATTGGTTTCGGAGTCACCTAGTGCAG,17500 fluorescence intensity (a.u.)
7,TTTTCAAATTTTAGTATACTGATTTATGTTTGCATACAGTCGGAGTCACCTAGTGCAG,9360 fluorescence intensity (a.u.)
8,GAGCAAATTGCAAAAGCAAAGAATAAAATGAAATATCGGGCGGAGTCACCTAGTGCAG,3970 fluorescence intensity (a.u.)
9,GTGTCTCAGTCAACATCAATTGATTGATCAATATAACAACCGGAGTCACCTAGTGCAG,39900 fluorescence intensity (a.u.)
10,CAAATTAATGAGGGTAAATTGGTCAGTTTTAGTAGACATTCGGAGTCACCTAGTGCAG,30100 fluorescence intensity (a.u.)
11,AAATAAGATTGACAATTAAAGTTGGAAACGAAAACTAATGCGGAGTCACCTAGTGCAG,47500 fluorescence intensity (a.u.)
12,GCTAACTTTTCAATCTCTGTGACCGTTTGATTTATTGTCTCGGAGTCACCTAGTGCAG,23000 fluorescence intensity (a.u.)
13,AGACTAGACAAAATTGAAGGCCATAATATGGTACAGCCTCCGGAGTCACCTAGTGCAG,4660 fluorescence intensity (a.u.)
14,GCACTATCAATCTAGAGATAGGTCATGTCCAAATTCGTAGCGGAGTCACCTAGTGCAG,4380 fluorescence intensity (a.u.)
15,CCAAGAAAATGCCATGATTGATGTCGGGGTGTAAGAGATGCGGAGTCACCTAGTGCAG,28600 fluorescence intensity (a.u.)
16,GCTTGTTTGTTGTGATTAGTACTAATGGGTAAGAATGTTCCGGAGTCACCTAGTGCAG,18800 fluorescence intensity (a.u.)
17,ACAGTAATGTGCACAAATTGCCAAAAGAATTTATGCATGCCGGAGTCACCTAGTGCAG,14700 fluorescence intensity (a.u.)
18,TTCTCTTTAATTCGACACTAATCAAGTTATTTGCTGCGACCGGAGTCACCTAGTGCAG,5600 fluorescence intensity (a.u.)
19,GTTTGATTGGAGCAATGTCTCAATGGGTGAGAAGATGAGGCGGAGTCACCTAGTGCAG,54300 fluorescence intensity (a.u.)
20,GAAAATTGATTTATTTTGATCACAGAGAGAGAGAGAGGGTCGGAGTCACCTAGTGCAG,49200 fluorescence intensity (a.u.)
21,TGTTGGATTTGATTGCAATCTCACACTCTCACAGGGTCACCGGAGTCACCTAGTGCAG,31300 fluorescence intensity (a.u.)
